Data on 45 molecules can be found in article PMC4336329 (PLoS ONE, 2015).

SMILES strings stand for the structures. Screen size: about 310,000 compounds; about 14,000 (4.5%) showed an effect of 50% or more. The effect is printed as a negative number. This is one part of the list.
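Also: peak tail current of the secondary pulse compared with the same well before compound.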

Chain of human ether-à-go-go-related gene (hERG) potassium channel (Q12809 whole entry, looked up): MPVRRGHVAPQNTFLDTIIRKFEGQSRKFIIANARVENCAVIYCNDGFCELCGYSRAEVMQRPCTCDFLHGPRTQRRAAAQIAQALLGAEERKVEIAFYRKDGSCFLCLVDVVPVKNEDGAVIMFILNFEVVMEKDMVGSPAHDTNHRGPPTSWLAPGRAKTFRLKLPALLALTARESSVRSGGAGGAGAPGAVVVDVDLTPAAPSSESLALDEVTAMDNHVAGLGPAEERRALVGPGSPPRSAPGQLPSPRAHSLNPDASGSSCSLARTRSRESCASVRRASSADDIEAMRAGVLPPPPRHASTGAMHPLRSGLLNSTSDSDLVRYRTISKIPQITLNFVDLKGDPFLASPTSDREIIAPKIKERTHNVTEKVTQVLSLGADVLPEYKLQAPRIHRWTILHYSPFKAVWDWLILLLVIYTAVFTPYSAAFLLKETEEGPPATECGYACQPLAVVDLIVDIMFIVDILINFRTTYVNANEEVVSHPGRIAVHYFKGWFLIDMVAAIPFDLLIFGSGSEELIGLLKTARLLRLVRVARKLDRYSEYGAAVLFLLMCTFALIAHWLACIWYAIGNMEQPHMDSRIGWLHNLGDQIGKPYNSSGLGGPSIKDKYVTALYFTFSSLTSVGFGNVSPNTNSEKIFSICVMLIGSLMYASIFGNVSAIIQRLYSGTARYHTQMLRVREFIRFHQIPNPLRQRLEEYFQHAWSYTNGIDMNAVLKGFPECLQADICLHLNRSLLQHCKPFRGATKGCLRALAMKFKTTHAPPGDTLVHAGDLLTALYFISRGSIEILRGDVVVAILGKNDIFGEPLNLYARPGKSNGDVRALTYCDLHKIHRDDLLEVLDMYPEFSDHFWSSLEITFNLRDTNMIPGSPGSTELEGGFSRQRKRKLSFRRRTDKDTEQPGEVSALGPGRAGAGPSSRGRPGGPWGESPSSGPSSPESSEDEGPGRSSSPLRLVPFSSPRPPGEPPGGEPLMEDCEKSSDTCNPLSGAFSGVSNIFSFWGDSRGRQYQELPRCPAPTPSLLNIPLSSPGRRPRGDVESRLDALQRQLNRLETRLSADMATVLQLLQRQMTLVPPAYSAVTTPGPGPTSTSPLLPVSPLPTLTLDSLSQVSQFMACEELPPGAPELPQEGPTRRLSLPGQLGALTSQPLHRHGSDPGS

The experiment concerns the target human ether-à-go-go-related gene (hERG) potassium channel (human, UniProt Q12809). Briefly: primary screen, population patch clamp on CHO cells stably expressing hERG.
In the case of `O=C(O)CCCNS(=O)(=O)c1ccc(F)cc1`, the “hERG current change (%, negative = inhibition) at 10uM” value is on record as 28.8%.

Turning to `O=C(NC12CC3CC(CC(C3)C1)C2)c1cnccn1`, the “hERG current change (%, negative = inhibition) at 10uM” value is on record as 7.83%.

`CN(C)c1cc[n+](CC(O)C[n+]2ccc(N(C)C)cc2)cc1.[O-][Cl+3]([O-])([O-])[O-]`: the “hERG current change (%, negative = inhibition) at 10uM” value is 15.9%.

As to `COc1cccc(-c2sc3ccc(OC)cc3c2C#CCC(C)O)c1` (stereo not drawn), the “hERG current change (%, negative = inhibition) at 10uM” value is 25.8%.

Consider `O=C(O)C1CCC(Cn2c(SCc3cc(=O)n4cc(Cl)ccc4n3)nc3ccsc3c2=O)CC1` (stereo not drawn), for which the “hERG current change (%, negative = inhibition) at 10uM” value was -1.89%.

Consider `Cc1ccc(-c2nn3c(C)nnc3c3ccccc23)cc1S(=O)(=O)N1CCN(CCO)CC1`, for which the “hERG current change (%, negative = inhibition) at 10uM” value is on record as -74.5%.

Take `Cn1cc(Cl)c(C(=O)NNC(=S)NCc2ccco2)n1`: the “hERG current change (%, negative = inhibition) at 10uM” value is recorded as 3.95%.

As for `O=C(N/N=C\c1ccc(COc2ccc([N+](=O)[O-])cc2)o1)c1ccc(Cl)cc1`, the “hERG current change (%, negative = inhibition) at 10uM” value was -67.6%.

For the molecule `Cn1c2ccc(F)cc2c2ncn(Cc3ccco3)c(=O)c21`, the “hERG current change (%, negative = inhibition) at 10uM” value is -13.9%.

As for `Cc1ccc(S(=O)(=O)NN2C(=O)c3ccccc3NC2c2ccccc2O)cc1` (stereo not drawn), the “hERG current change (%, negative = inhibition) at 10uM” value is -9.48%.

Regarding `C[C@@H]1C[C@@H]2O[C@H]2/C=C\C=C\C(=O)Cc2c(Cl)c(O)cc(O)c2C(=O)O1`, the “hERG current change (%, negative = inhibition) at 10uM” value was determined as 14.2%.

Take `CCOC(=O)Cc1csc(NC(=O)COc2ccc(OC)cc2)n1`: the “hERG current change (%, negative = inhibition) at 10uM” value is -18.1%.

With `CCC1=C2CC[C@H]3C(=O)N(c4ccccc4)C(=O)[C@H]3[C@H]2[C@@]2(C)C(=NCc3ccccc3)OC(=O)N2C1=O`, the “hERG current change (%, negative = inhibition) at 10uM” value is reported as -0.148%.

Turning to `CCC(C)NS(=O)(=O)c1cc2c3c(c1)CCC(=O)N3CCC2` (stereo not drawn), the “hERG current change (%, negative = inhibition) at 10uM” value was found to be 28.5%.

Consider `C#CCNC(=O)C1=C[C@H](C2CCCCC2)C[C@H](OCCCCO)O1`, for which the “hERG current change (%, negative = inhibition) at 10uM” value is reported as -5.39%.

As to `Cc1ccc(C(=O)Nc2ncc(Cc3ccc(F)cc3)s2)o1`, the “hERG current change (%, negative = inhibition) at 10uM” value is -2.85%.

As to `O=C(CSc1nnc(-c2ccc(Cl)cc2Cl)n1C1CCCCC1)N1CCCC1`, the “hERG current change (%, negative = inhibition) at 10uM” value is -20.8%.

With `COC(=O)C1=C(c2ccc(C(C)=O)cc2)C[C@@H]2CC[C@H]1N2C(=O)N1CCC(O)(c2ccc(Cl)cc2)CC1`, the “hERG current change (%, negative = inhibition) at 10uM” value is reported as -73.6%.

Regarding `CC1(C#N)c2ccccc2C(Br)=CN1C(=O)c1ccccc1` (stereo not drawn), the “hERG current change (%, negative = inhibition) at 10uM” value worked out at 0.996%.

As to `Cc1cccc(C)c1NC(=S)N(CCCN1CCCCC1)Cc1ccco1`, the “hERG current change (%, negative = inhibition) at 10uM” value was -25.7%.

With `COP(=O)(OC)C(NC(=O)C(C)(C)C)=C(Cl)Cl`, the “hERG current change (%, negative = inhibition) at 10uM” value was found to be 4.27%.

As for `CC1(C)Cc2c(C#N)c(NCCc3ccccc3)nc(-c3ccco3)c2CO1`, the “hERG current change (%, negative = inhibition) at 10uM” value came to 12.5%.

As to `N#CCC(=O)Nc1ccc(C(=O)OCC(=O)c2ccc3c(c2)NC(=O)CO3)cc1`, the “hERG current change (%, negative = inhibition) at 10uM” value is 6.61%.

On to `CCOc1ccc(NC(=O)C/C(N)=N/O)cc1`, for which the “hERG current change (%, negative = inhibition) at 10uM” value is recorded as 11.8%.

Regarding `Cc1ccc(NC(=O)CSc2nc(O)cc(=O)n2C)cc1`, the “hERG current change (%, negative = inhibition) at 10uM” value was determined as 3.86%.

`CC1C(c2ccccc2)=[N+]([O-])C2(CCCC2)N1O` (stereo not drawn): the “hERG current change (%, negative = inhibition) at 10uM” value is reported as 0.2%.

Turning to `CC(C)c1ccc(NC(=O)Cn2c(=O)oc3cccnc32)cc1`, the “hERG current change (%, negative = inhibition) at 10uM” value is listed as -5.25%.

On to `CC(/C=N/n1c(-c2ccc(Cl)cc2)n[nH]c1=S)=C\c1ccco1`, for which the “hERG current change (%, negative = inhibition) at 10uM” value is listed as 6.27%.

Regarding `O=C(NCc1ccncc1)c1ccc(NS(=O)(=O)c2cccc([N+](=O)[O-])c2)cc1`, the “hERG current change (%, negative = inhibition) at 10uM” value is given as 19.2%.

Regarding `c1ccc(-c2n[nH]c(-c3ccccn3)n2)nc1`, the “hERG current change (%, negative = inhibition) at 10uM” value is given as 19.6%.

`C=CCN1C(=O)c2ccccc2NC1c1ccc(Br)s1` (stereo not drawn): the “hERG current change (%, negative = inhibition) at 10uM” value is listed as -5.19%.

Regarding `Cc1cc(NC(=O)CSc2nccn2-c2cccc(Cl)c2)no1`, the “hERG current change (%, negative = inhibition) at 10uM” value is -4.27%.

As for `N#Cc1nc(COc2ccccc2F)oc1NCc1ccc(F)cc1`, the “hERG current change (%, negative = inhibition) at 10uM” value is 7.13%.

As to `c1ccc(-c2csc(Nc3cccnc3)n2)nc1`, the “hERG current change (%, negative = inhibition) at 10uM” value is recorded as -1.27%.

Take `CC(C)CC(=O)NC(=S)Nc1ccc(F)cc1F`: the “hERG current change (%, negative = inhibition) at 10uM” value was found to be 9.46%.

Consider `COc1ccc(-c2noc(C3CCCN(C(=O)c4ccc(F)cc4)C3)n2)cc1` (stereo not drawn), for which the “hERG current change (%, negative = inhibition) at 10uM” value is -35.3%.

`FC(F)(F)c1cccc(NC2=NCCCS2)c1`: the “hERG current change (%, negative = inhibition) at 10uM” value turned out to be 11.6%.

Regarding `O=C(NCCC(=O)N1CCc2ccccc21)c1ccccc1Cl`, the “hERG current change (%, negative = inhibition) at 10uM” value is given as 3.84%.

With `COc1cc(/C=C2/C(=O)NN(c3ccc(C)c(Cl)c3)C2=O)cc([N+](=O)[O-])c1O`, the “hERG current change (%, negative = inhibition) at 10uM” value is 17.5%.

Consider `C/C(=N\N1CCN(c2ccc(Cl)cc2)CC1)c1cccs1`, for which the “hERG current change (%, negative = inhibition) at 10uM” value is on record as -3.52%.

For `O=C(O)c1ccc2c(=O)n(Cc3ccccc3)c(SCc3ccc([N+](=O)[O-])cc3)nc2c1`, the “hERG current change (%, negative = inhibition) at 10uM” value is -29.5%.

With `O=C(Nc1ccc2[nH]c(=O)[nH]c2c1)C(F)(F)F`, the “hERG current change (%, negative = inhibition) at 10uM” value is reported as 14.9%.

With `CC(=O)c1ccc(Nc2nc3ccc(C)cc3n3cnnc23)cc1`, the “hERG current change (%, negative = inhibition) at 10uM” value stood at 14.2%.

As for `CCN(CC)S(=O)(=O)c1cccc(-c2nnc(SCC(=O)NCCC3=CCCCC3)n2N)c1`, the “hERG current change (%, negative = inhibition) at 10uM” value is -32.6%.

As to `N#Cc1ccc(COC(=O)C2CCC(=O)N2)cc1` (stereo not drawn), the “hERG current change (%, negative = inhibition) at 10uM” value is 9.97%.
